From PMC9865020, “Identification of Novel Small Molecule Ligands for JAK2 Pseudokinase Domain” (Pharmaceuticals, 2023)

Key:
[1] = test system: HEL cells; experiment: alamarBlue cell viability assay; format: cell-based; settings: Homo sapiens, HEL (JAK2 V617F homozygous), 48 h, upper detection limit 40 µM
[2] = test system: SET-2 cells; experiment: alamarBlue cell viability assay; format: cell-based; settings: Homo sapiens, SET-2 (JAK2 V617F heterozygous), 48 h, upper detection limit 40 µM

Compound `Cc1ccsc1CN(C)Cc1nc(N)nc(Nc2ccccc2)n1` [Compound 24] has an IC50 [1] greater than 40 µM and an IC50 [2] greater than 40 µM.
